The results in this text go back to the RNAGym collection of RNA variant scans (doi:10.1093/nar/gkz1192).

The source gives no read counts; variants with many changes may rest on few reads.

The labels stand for the following.
B1: CPEB3 Ribozyme (parent)
chain: UAACAGGGGGCCACAGCAGAAGCGUUCACGUCGCAGCCCCUGUCAGAUUCUGGUGAAUCUGCGAAUUCUGCUGUAUAUCUC

The data set covers variants of B1. In words: self-cleavage, relative activity (ratio to wild type); higher = more cleavage; in vitro, sequencing. In a few lines:
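After error-prone PCR and barcoding, CPEB3 ribozyme mutant libraries were transcribed with T7 RNA polymerase at 37°C for 5 hours, then given 15 min with DNase I before an EDTA stop, and they cleaved during both steps. Reverse transcription with template switching preceded Illumina sequencing. Relative activity divides a variant's cleaved/total read fraction by the unmutated ribozyme's. At least 5 reads were required per variant, and three batches were averaged.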
For A15G A56U U67C C79G U80C, the self-cleavage is 0.15. The figure for A15G A57G U72C is 1.23; for A15G A56U U58A it is 0.15. To A15G A28U U31A U43C U54G G70C U78A belongs 0.04; to A15G C44U U54G, 0.13.

Take A15G G22A U49C: the self-cleavage worked out at 0.14. To A15G G22A U49A belongs 0.16; to A15G A21G U49C, 0.11; to A15G G36A U41G U43C, 0.24. To A15G G30A U49C A57G A75G A77G belongs 0.14; to A15G G33C U54G U60C A65G U66C U72C, 0.06. As to A15G A21G G70A, the self-cleavage is 0.24. To A15G A28G A77G belongs 0.6; to A15G A28U U67A U80A, 0.23; to A15G C29G C37U A64G, 0.2.

As to A15G A35G U48C, the self-cleavage was found to be 0.26. For the variant A15G A45G A77U, the self-cleavage was 0.59. As for A15G G42A U54A G55U A57G A75G U78C, the self-cleavage stood at 0.04. The figure for A15G G33A A35U U51C U76A A77G is 0.15; for A15G C39A A47C it is 0.18. The figure for A15G A20U A28U U67C is 0.57; for A15G G16C A47G A56U G61A it is 0.1; for A15G A65U U78C it is 0.28. The figure for A15G G30U U54C A56U U66C U72A U80C is 0.05. As for A15G G19U A35U U74A, the self-cleavage is 0.39.

A15G A35G A45G A75U U78C: the self-cleavage stood at 0.91. To A15G A21G U49A A65G U72A belongs 0.13. The figure for A15G A35C U60A is 0.18; for A15G C23U U25A U66C it is 0.11; for A15G A47U U58C A75U it is 0.22. In the case of A15G C38A U41C G46U U48C C68A U69A, the self-cleavage was found to be 0.18. The figure for A15G A28G C32U U58C is 0.37; for A15G C34A U43C U48C U67A it is 0.08; for A15G U25C A35U U41A G42C A75G U78C it is 0.05.

As to A15G C68U U80C, the self-cleavage is 0.46. The figure for A15G A20G U26C U51C is 0.33; for A15G A28G U43G U49A U69G U76C it is 0.2; for A15G G30C C40U U41C U48C G52A it is 0.12.

For A15G A47G U54A A56C U72G U80C, the self-cleavage was 0.32. The figure for A15G C23G U51C is 0.09; for A15G A35G A45U U51C it is 0.27. To A15G A18U U48C A75U belongs 0.08; to A15G G16U A21U A28U A65U, 0.11; to A15G A28G A47U G63A A64G, 0.15. To A15G A20U U31C C34U belongs 0.16; to A15G U25A A28G U48C A65G U80A, 0.09. As for A15G A20U U72A, the self-cleavage is 0.16. As for A15G C44U U60A, the self-cleavage amounted to 0.25.

For A15G A35U U60C, the self-cleavage was found to be 0.3.

For the variant A15G U25C A28G U66C, the self-cleavage is 0. To A15G A28U U49C A56G U69A belongs 0.08; to A15G A35U U41C A45U U80C, 0.21.

For the variant A15G C38U U76C U80C, the self-cleavage amounted to 1.13. To A15G U25A U48C U60C belongs 0.03; to A15G A18U U72C G73U U78C, 0.5; to A15G A20G U60C, 0.14. To A15G G22A C29U U69C belongs 0.04. The figure for A15G A35U U60C A65U is 0.16; for A15G U25A C59A A65G U67A it is 0.04; for A15G G33A U48A C50G U54A U74C it is 0.05. Turning to A15G A45U U58C, the self-cleavage came to 0.16. On to A15G G33A G36A C81A, for which the self-cleavage is 0.32. To A15G G24A U26C G61U belongs 0.18; to A15G A18U U49A, 0.61; to A15G U25C A65G, 0.16. The figure for A15G A21U A28G U58C is 0.19; for A15G A28G U41C U43C U67C U72A it is 0.1. To A15G G19U A21U U26C U31A U58C U67A belongs 0.06; to A15G G24U U51C, 0.29; to A15G A35C A65G U66C, 0.14. As to A15G A21G G63C U72A, the self-cleavage came to 0.09. To A15G U25C C37U U48A belongs 0.07.

As for A15G C23A A57U A77U, the self-cleavage came out at 0.04. For the variant A15G U25C C34U A35G U41G A45G, the self-cleavage was 0.04. To A15G A56U U66C belongs 0.08; to A15G A18U U31C G53A, 0.36; to A15G A28U U49A A56G U58C G61A A77G, 0.31. With A15G A28G U41G A57G, the self-cleavage was found to be 0.04. To A15G A45G U60A belongs 0.33; to A15G A45G U60C, 1.13; to A15G A28C U43A U54A U72C, 0.6.

In the case of A15G G19U C40U U41C, the self-cleavage stood at 0.27. The figure for A15G A18U U25C U31C U72C is 0.16.
